This note sets out measurements from PubChem BioAssay AID1508624 (National Center for Advancing Translational Sciences (NCATS), 2021).

Molecules are shown by their SMILES. Out of some 48,000 compounds screened, about 120 (0.25%) were called active. Roughly 4% stayed inconclusive and do not appear here. Calls follow the shape of the dose curve; as a rule, active = well fitted activation curve with a large enough effect; inconclusive = small, poorly fitted or top-dose-only effect, or another doubt; inactive = no such curve, though single readings can be large or run the other way. This is one part of the list.

This assay in a line: Primary qHTS for Identification of Small Molecule Activators of Huntingtin-Antisense Promoter Activity. Also: nearly all actives have a fitted effect of over 55% in size. Conditions: HEK293 HTT-AS promoter firefly luciferase reporter, 24 h; series mostly up to 57.5 µM; activity change, positive = activation: at the top concentration. A digest of the protocol: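 Quantitative HTS used concentration series of up to 57.5 uM final on HEK293 luciferase reporter cells, 24 h at 37 degrees C. Readout was Dual-Glo firefly luminescence.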
As for `COc1cc(NC(=O)c2cc(-c3cccs3)on2)c(OC)cc1Cl`, the activity change, positive = activation is inactive: 9.57% [at 11.5 µM, percent change from vehicle, -100% = no light].
Next, `CC(C)CCNC(=O)Nc1ccc2c(c1)N(C)C(=O)c1ccccc1S2`: inactive: -25.1%; `COC(=O)CS(=O)(=O)c1nc2ccccc2nc1N1CCCCC1`: inactive: -5.15%; `COCCCNc1ncnc2onc(-c3ccc(F)cc3)c12`: inactive: -3.09%.
Regarding `COCCCNC(=O)CN1C(=O)COc2ccc(S(=O)(=O)N3CCCC3)cc21`, the “activity change, positive = activation” value is inactive: -6.72%.
Next, `Cc1ccc(NC(=O)Cn2c(=O)c3cc(Cl)ccc3n3nncc23)cc1`: inactive: -8.59%; `Cc1n[nH]c(C)c1S(=O)(=O)N(CC(=O)NC(C)c1ccccc1)c1ccc(C(C)C)cc1` (stereo not given): inactive: -22.7%.
Regarding `COc1ccc(C(=O)NCCn2cc(SCC(=O)NCCc3ccc(OC)c(OC)c3)c3ccccc32)cc1`, the “activity change, positive = activation” value is inactive: -53.6%.
Regarding `COc1cccc(NC(=O)Cn2cnc3c(nc4n3CCCCC4)c2=O)c1`, the “activity change, positive = activation” value is inactive: 2.7%.
Consider `CC1=C(c2ccc(C)c(C)c2)S(=O)(=O)N=C1N1CCC(C(=O)NCCc2ccco2)CC1`, for which the “activity change, positive = activation” value is inactive: -17%.
In the case of `Cc1ccc(-c2cc(C(=O)N3CCN(S(=O)(=O)c4ccc(Br)cc4)CC3)[nH]n2)cc1C`, the “activity change, positive = activation” value was inactive: -15.2%.
Consider `CC1=Nc2cc(C(=O)NC3CCCC3)ccc2Sc2ccc(C)cc21`, for which the “activity change, positive = activation” value was inactive: -46.9%.
Next, `COc1cccc(C(=O)Nc2ccccc2C(=O)OCc2cc(=O)n3c(C)csc3n2)c1`: inactive: -20.1%; `COc1ccc(NC(=O)Cn2c(C)cc3ccccc3c2=O)c(OC)c1`: inactive: -9.85%.
Take `Cc1nn(-c2nc(-c3ccc(F)cc3)cc(C(F)(F)F)n2)c(C)c1Br`: the “activity change, positive = activation” value was inactive: -11.8%.
For `COC(=O)c1cc(C)nc2c1c(=O)nc(SCc1cccc(C)c1)n2C1CC1`, the “activity change, positive = activation” value was inactive: -12%.
Regarding `CCOc1ccc(CNC(=O)CCS(=O)(=O)c2cc3c(cc2Cl)NC(=O)CO3)cc1OC`, the “activity change, positive = activation” value is inactive: -0.291%.
Take `CCOC(=O)c1ccccc1NC(=O)Nc1cc2c(cc1N1CCCCC1)n(C)c(=O)n2C`: the “activity change, positive = activation” value is inactive: -3.58%.
On to `Cc1nn(-c2ccc(F)cc2)c(-n2cccc2)c1C(=O)NCCCN1CCN(c2ccccc2F)CC1`, for which the “activity change, positive = activation” value was inactive: -30.9%.
On to `COc1cccc(NC(=O)CCc2c(C)nc3c4cccnc4nn3c2C)c1`, for which the “activity change, positive = activation” value is inactive: -7.17%.
`O=C(Nc1ccc(N2CCC(c3ccccc3)C2)c(C(=O)O)c1)c1ccc(Cl)cc1` (stereo not given): the “activity change, positive = activation” value was inactive: -11.9%.
As for `CCOc1ccc(Oc2nc(NCC(C)C)nc(NC(C)(C)C)n2)nn1`, the “activity change, positive = activation” value is inactive: -7.62%.
Next, `COc1ccccc1OCC(=O)N(Cc1ccc(Cl)cc1)CC1CCCO1` (stereo not given): inactive: -18.3%.
For `CCc1cccc(CC)c1NC(=O)c1ccc2c(c1)CCN2S(=O)(=O)c1ccccc1`, the “activity change, positive = activation” value was inactive: -18.2%.
Regarding `CC(=O)c1ccc(NC(=O)CC2Nc3cccc4cccc(c34)NC2=O)cc1` (stereo not given), the “activity change, positive = activation” value is inactive: -23.6%.
On to `Cc1cccc(NC(=O)CN2C(=O)c3cccnc3Oc3ccc(Cl)cc32)c1C`, for which the “activity change, positive = activation” value was inactive: -33.5%.
`CSc1ccc(CCNC(=O)CCCn2nc(C)c3sc4ccccc4c3c2=O)cc1`: the “activity change, positive = activation” value is inactive: -0.976%.
On to `CCc1cccc(NC(=O)CCS(=O)(=O)c2cc(Br)cc3c2N(C(C)=O)CC3)c1`, for which the “activity change, positive = activation” value is inactive: -7.81%.
Regarding `COc1cc(OC)cc(C(=O)Nc2ccc3c(c2)N(C2CCCC2)C(=O)c2ccccc2S3)c1`, the “activity change, positive = activation” value is inactive: -38.1%.
`O=C(NCc1ccccc1Cl)c1cc2ccccc2o1`: the “activity change, positive = activation” value was inactive: 15.2%.
Next, `O=C(CSc1nc2ccccc2nc1Cc1ccccc1)N1CCCCC1`: inactive: -18.9%; `COc1cc(-c2nc3ncccn3c2Nc2ccc(C)cc2C)ccc1O`: inactive: -8.35%.
On to `CCOc1ccc(-c2nnc(SCC(=O)NCc3ccccc3)nc2-c2ccc(OCC)c(OC)c2)cc1OC`, for which the “activity change, positive = activation” value was inactive: -17.9%.
Regarding `CCc1ccc(C2CC(=O)Nc3c2c(C)nn3-c2nc(C)cc(C)n2)cc1` (stereo not given), the “activity change, positive = activation” value was inactive: -28.4%.
Regarding `CCOc1ccccc1NC(=O)N1CCN(Cc2nc3ccc(C)cc3o2)CC1`, the “activity change, positive = activation” value was inactive: -13.2%.
Next, `Cc1ccc(C)c(N2CCN(S(=O)(=O)c3c(C)nc4sccn4c3=O)CC2)c1`: inactive: 12.7%; `Cc1cc(C)cc(-n2c(SCC(N)=O)nc3c(oc4ccccc43)c2=O)c1`: inactive: -13.8%; `CCCCOc1cccc(C(=O)Nc2ccc3oc(-c4cccnc4)nc3c2)c1`: inactive: -24.1%.
Turning to `CCOc1ccccc1NC(=O)Cn1cnc2sc(C)c(S(=O)(=O)N3CCC(C)CC3)c2c1=O`, the “activity change, positive = activation” value was inactive: 9.48%.
With `CCC(=O)NCC(c1ccc2c(c1)OCO2)N1CCN(c2ccccc2)CC1` (stereo not given), the “activity change, positive = activation” value is inactive: -10.6%.
Regarding `Cc1nc2ccccc2c(=O)n1-c1ccc(NC(=O)c2ccc([N+](=O)[O-])cc2)cc1`, the “activity change, positive = activation” value was inactive: -18%.
Next, `COc1ccc(-c2[nH]nc3nc(-c4cc(OC)c(OC)c(OC)c4)cc(C(=O)O)c23)cc1`: inactive: -6.51%.
As to `COc1ccc(C(=O)Nc2nnc(S(=O)(=O)N(C)c3ccc(Cl)cc3)s2)cc1OC`, the “activity change, positive = activation” value was inactive: -31.2%.
Turning to `Cc1ccccc1CNC(=O)C(=O)NCC(c1ccco1)S(=O)(=O)c1ccccc1` (stereo not given), the “activity change, positive = activation” value was inactive: -12.9%.
Take `Cc1ccc(CCNC(=O)c2cn(C)c3ccc(S(=O)(=O)N4CCCCC4)cc3c2=O)cc1`: the activity change, positive = activation was inactive: 6.92% [at 11.5 µM, percent change from vehicle, -100% = no light].
For the compound `CCCS(=O)(=O)N1CCCC(C(=O)NCCCOC)C1` (stereo not given), the “activity change, positive = activation” value is inactive: -3.48%.
With `COc1c(Cl)cc2c([nH]c3cnccc32)c1NC(=O)c1cccnc1C`, the “activity change, positive = activation” value was inactive: 0.341%.
`CCCCCC=CCC=CCCCCCCCC(=O)OCC`: the “activity change, positive = activation” value was inactive: -1.56%.
Turning to `Cc1ccc2[nH]c(CSc3nnc(NC(=O)c4ccccc4C)s3)cc(=O)c2c1`, the “activity change, positive = activation” value is inactive: -39.7%.
For the compound `COCCCNC(=O)c1cc(-c2cccnc2)nc2ccc(S(=O)(=O)N3CCC(C)CC3)cc12`, the “activity change, positive = activation” value is inactive: -11.4%.
Next, `CN1C(=O)C2(c3ccccc31)N(c1cccc(F)c1)C(=O)CS2(=O)=O` (stereo not given): inactive: 11.2%; `COc1ccc(Cl)cc1NC(=O)c1c(NCc2sccc2C)sc2c1CCCC2`: inactive: -0.615%.
With `Clc1ccccc1CNc1nc2ccccc2c2nc(-c3cccnc3)nn12`, the “activity change, positive = activation” value was inactive: -11.3%.
As for `O=C(Cn1nnc(-c2ccc(Cl)cc2)n1)NCc1ccc(F)cc1`, the “activity change, positive = activation” value was inactive: -8.32%.
On to `COc1ccc(OC)c(CNS(=O)(=O)c2c(C(=O)N3CCCCCC3)c(C)n(C)c2C)c1`, for which the “activity change, positive = activation” value was inactive: -5.58%.
Next, `O=S(=O)(c1ccc(Br)cc1)c1nc(-c2cccs2)oc1SCc1ccccc1F`: inactive: -1.39%; `Cc1ccc(-n2ncc(C(=O)Nc3ccc4c(c3)OCO4)c2C2CCN(C(=O)OC(C)(C)C)CC2)cc1`: inactive: -12.4%; `Cc1ccnc(NS(=O)(=O)c2cc(-c3cc(C)no3)ccc2C)c1`: inactive: -5.87%.
Take `CCc1ccc(N(CC)C(=O)Cn2c(=O)oc3ccccc32)cc1`: the “activity change, positive = activation” value is inactive: 1.27%.
As for `COc1ccc(NC(=O)C2CCCN(S(=O)(=O)c3ccc4c(c3)CCCC(=O)N4)C2)c(OC)c1` (stereo not given), the “activity change, positive = activation” value was inactive: -32%.
